# Screen size: about 310,000 compounds; about 2,200 (0.71%) showed an effect of 50% or more. Effects have a minus sign here. The list shows a part of the results.
# Molecular target: human ether-à-go-go-related gene (hERG) potassium channel (human, UniProt Q12809)
# Assay: primary screen, population patch clamp on CHO cells stably expressing hERG
# Chain of human ether-à-go-go-related gene (hERG) potassium channel (Q12809 whole entry, looked up): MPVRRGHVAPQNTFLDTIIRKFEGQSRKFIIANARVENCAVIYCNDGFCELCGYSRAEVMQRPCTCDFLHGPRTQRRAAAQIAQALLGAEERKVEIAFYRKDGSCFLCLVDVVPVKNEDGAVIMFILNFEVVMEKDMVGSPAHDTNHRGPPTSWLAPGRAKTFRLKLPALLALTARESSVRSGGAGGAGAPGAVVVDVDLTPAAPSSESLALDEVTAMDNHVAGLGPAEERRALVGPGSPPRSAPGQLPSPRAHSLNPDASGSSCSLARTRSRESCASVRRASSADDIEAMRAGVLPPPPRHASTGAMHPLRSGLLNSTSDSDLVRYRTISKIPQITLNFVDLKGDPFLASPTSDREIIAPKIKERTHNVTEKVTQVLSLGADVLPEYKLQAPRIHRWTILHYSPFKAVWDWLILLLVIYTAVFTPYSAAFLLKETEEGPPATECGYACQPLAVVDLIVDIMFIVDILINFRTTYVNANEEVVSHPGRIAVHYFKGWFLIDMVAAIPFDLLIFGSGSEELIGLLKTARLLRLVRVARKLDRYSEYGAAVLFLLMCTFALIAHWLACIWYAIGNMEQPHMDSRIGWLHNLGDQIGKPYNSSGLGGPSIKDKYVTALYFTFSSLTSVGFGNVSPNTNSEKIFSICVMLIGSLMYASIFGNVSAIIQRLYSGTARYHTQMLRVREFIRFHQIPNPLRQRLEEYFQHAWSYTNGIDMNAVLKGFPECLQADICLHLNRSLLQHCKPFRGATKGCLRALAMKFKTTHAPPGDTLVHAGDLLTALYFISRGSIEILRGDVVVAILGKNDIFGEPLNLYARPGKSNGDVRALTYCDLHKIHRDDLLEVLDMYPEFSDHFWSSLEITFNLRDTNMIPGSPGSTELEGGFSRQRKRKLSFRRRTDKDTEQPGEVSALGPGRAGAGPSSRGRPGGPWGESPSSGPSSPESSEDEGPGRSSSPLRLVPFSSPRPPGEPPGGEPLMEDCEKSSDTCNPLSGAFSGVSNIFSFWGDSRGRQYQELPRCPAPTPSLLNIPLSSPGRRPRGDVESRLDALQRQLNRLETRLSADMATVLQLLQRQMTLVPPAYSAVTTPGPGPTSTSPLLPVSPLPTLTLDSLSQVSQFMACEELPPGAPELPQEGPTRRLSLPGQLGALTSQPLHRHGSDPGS
row,Structure (SMILES),"hERG current change (%, negative = inhibition) at 1uM [%]"
1,CCCC(=O)Nc1ccc(C(=O)NCC2CCCO2)cc1 (centres unmarked),-11.7
2,CCOc1ccc(S(=O)(=O)N2CCOCC2)cc1NC(=O)CSCC(=O)Nc1cccc(C)c1,3.34
3,CC(=O)Nc1ccc(S(=O)(=O)Nc2cccc(-n3c(C)nc4ccccc4c3=O)c2)cc1,10.8
4,Nc1c(Cl)ncnc1NCCO,10.9
5,CCc1ccc(NC(=O)c2ccc(F)c(S(=O)(=O)N(CC)c3ccccc3)c2)cc1,13.4
6,CCOC(=O)c1c(C)[nH]c(C)c1S(=O)(=O)NCC1CCN(Cc2ccc(C)cc2)CC1,-9.26
7,CN1CC(=O)N(CC(=O)Nc2ccc(Br)cc2F)C1=O,0.736
8,COc1ccc(C2=NOC(C(=O)Nc3cccnc3)C2)cc1OC (centres unmarked),-3.13
9,Cc1ccsc1C(=O)OCC(=O)NC1CCCC1,17.7
10,COc1cccc(N2C(=O)[C@H]3C(C(=O)c4cnccn4)=NN[C@H]3C2=O)c1,9.34
11,CSc1ccccc1OCc1cc(C(=O)N2CCCC2c2nonc2C)no1 (centres unmarked),13.7
12,Cc1ccc2c(c1)cc(C(=O)NCc1ccccc1)n2C,16.2
13,CCCCn1c(N)c(N(C)C(=O)c2ccc(Br)o2)c(=O)[nH]c1=O,7.35
14,Cc1cc(S(=O)(=O)N2CCCCC2)c(C)s1,8.88
15,Cc1[nH]c2ccccc2c1/C=N/NC(=O)c1cccc(Br)c1,15.6
16,COc1ccccc1CNC(=O)c1cc(C(C)=O)c[nH]1,22.4
17,COc1cc(OC)cc(C(=O)NNC(=O)c2ccccc2Br)c1,11.4
18,O=C(c1ccc2c(c1)OCO2)N1CCN(S(=O)(=O)c2ccccc2)CC1,1.68
19,CC(C)OCCCNc1nc2c(c(=O)n(Cc3ccccc3F)c(=O)n2C)n1C,-11
20,Cc1ccc(-c2nnc(SCC(=O)N3CCCC3)o2)cc1C,5.77

row,Structure (SMILES),"hERG current change (%, negative = inhibition) at 1uM [%]"
1,CN(C)CCNC(=O)Cc1ncc(C(F)(F)F)cc1Cl,19
2,Cc1ccc(C(c2nnnn2CCc2ccccc2)N2CCSCC2)cc1 (centres unmarked),4.44
3,CC(C)(CN1CCCC1)NC(=O)C1CCC(=O)N(CCCN2CCOCC2)C1 (centres unmarked),8.19
4,Cc1cc(=O)[nH]c(=S)n1-c1ccccc1,12.6
5,COc1ccc(N2C(=O)CC(N3CCN(c4ccc(C(=O)c5cccnc5)cc4)CC3)C2=O)cc1 (centres unmarked),-17.1
6,CCOC(=O)/C(=N\NC(=O)c1ccccc1)c1ccccc1,-4.53
7,CCOC(=O)N1CCN(C(=O)c2cn(C)c3ccc(S(=O)(=O)N4CCOCC4)cc3c2=O)CC1,14.5
8,O=C(CN1CCN(CC(=O)Nc2ccccc2C(F)(F)F)CC1)Nc1ccccc1F,-15.1
9,Nc1[nH]nc2nc(N3CCOCC3)nc(-c3ccccc3)c12,-7.38
10,COC(=O)c1ccc(Cn2cc([N+](=O)[O-])cn2)cc1,13.4
11,Cc1ccccc1Nc1nnc(SCc2nc3ccccc3c(=O)[nH]2)s1,9.2
12,COc1ccc(CC(=O)Nc2cccc(-c3cn4ccccc4n3)c2)cc1,-4.55
13,CCc1ccc(C2=NN(CCC(=O)NC(C)CCc3ccccc3)C(=O)CC2)cc1 (centres unmarked),-0.87
14,Cn1c(-c2cccc3ccccc23)n[nH]c1=S,10.3
15,CCCNC(=O)c1cccc(Cn2nc(C)c(Br)c2C)c1,13.1
16,Cc1ccccc1OCCC(=O)Nc1c(C)n(C)n(-c2ccccc2)c1=O,4.18
17,O=C(O)CCNS(=O)(=O)c1ccccc1,1.32
18,COc1cccc(-c2noc(CCCC(=O)N3CCOCC3)n2)c1,-2.41
19,COc1ccc(C2SCCN2C(=S)Nc2cccc(C(F)(F)F)c2)cc1 (centres unmarked),11.7
20,COc1ccc(C(=O)CSc2nnc(CCc3ccccc3)n2-c2ccccc2)cc1,4.9

row,Structure (SMILES),"hERG current change (%, negative = inhibition) at 1uM [%]"
1,CCN(CC)S(=O)(=O)c1cc(C(=O)OCC(=O)NC(=O)c2cccn2C)ccc1C,4.88
2,Cc1ccc(C(C(=O)NCC2CCCO2)N(C(=O)c2snc(C(N)=O)c2N)c2ccccc2F)o1 (centres unmarked),-5.24
3,COc1ccc(Cn2c(=N)c(C(=O)NC3CCCCC3)cc3c(=O)n4ccccc4nc32)cc1,-5.89
4,C=CCC(NC(=O)Cc1ccccc1)C(=O)NCCC (centres unmarked),15.3
5,CCOCCN(C(=O)COC)c1cccc(OC)c1,-3.09
6,CCN1CCN(Cc2cccnc2)CC1,11.9
7,Cc1ccc(S(=O)(=O)Nc2ccc(N3CCCCC3)cc2)cc1,15.5
8,COc1cccc(NP(=O)(Oc2ccccc2Cl)Oc2ccccc2Cl)c1,8.66
9,CCn1c(=O)cc(OCC(=O)Nc2ccc3c(c2)OCCO3)c2ccccc21,10.7
10,COc1ccccc1NC(=O)Nc1ccc2c(c1)OCCO2,17.6
11,COc1cc2c(cc1[N+](=O)[O-])n(C(C)C)c(=O)n2C(C)C,-21.8
12,Cc1ccc(C)n1-n1c(C)nc2sc3c(c2c1=O)CCCCC3,-1.26
13,Cc1cc(NC(=O)Nc2ccccc2[N+](=O)[O-])no1,9.68
14,CCOC(=O)c1[nH]c(C)c(C(=O)Nc2ccc(C)c(Cl)c2)c1C,6.95
15,Cc1ccc(NS(=O)(=O)c2ccc(CCC(=O)N3CCOCC3)cc2)cc1,3.9
16,COc1ccc(Nc2nc(C)cc(C)c2C(N)=O)cc1,4.79
17,COc1cc2c(cc1OC)/C(=C/C(=O)c1ccc(NC(C)=O)cc1)NCC2,13.2
18,Cc1c(NC(=O)CSc2nncn2-c2ccccc2)c(=O)n(-c2ccccc2)n1C,24.4
19,COC(=O)c1sc2ccccc2c1-n1cccc1C(=O)C(=O)Nc1ccccc1,-2.13
